Measurements from PubChem BioAssay AID1508642 (National Center for Advancing Translational Sciences (NCATS), 2021).
Screen size: about 43,000 compounds; about 200 (0.47%) were called active. Another 12% or so got no clear call; they are omitted. The call rests on the fitted dose curve; in most records, active means well fitted cell-killing curve with a large enough effect; inconclusive means small, poorly fitted or top-dose-only effect, or effect the other way; inactive means flat fitted curve, though single readings scatter. The list shows a part of the results.

Assay: Cell viability qHTS assay in S16 Pmp22-F2sN cells; further: nearly all actives have a fitted effect of over 65% in size
Conditions: S16 Pmp22-F2sN Schwann cells viability, CellTiter-Glo, 24 h; series mostly up to 57.5 µM; activity change, negative = cytotoxicity: at the top concentration
In short: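 S16 Pmp22-F2sN Schwann cells (500-1,000/well) in phenol-red-free DMEM with 10% FBS received 23 nL compound by pin tool for 24 h at 37 °C. Viability was then read as CellTiter-Glo luminescence after 15 min at room temperature.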
On the % scale 0 is the no-effect control and ±100 the full control effect.

| Structure (SMILES) | activity change, negative = cytotoxicity |
| --- | --- |
| COc1ccc(Br)cc1CNC(=O)CN1CCSc2ccccc21 | inactive: -10.2% |
| O=C(Nc1ccc(Cl)c(Cl)c1)N1CCC(c2ccccc2)C1 (configuration not stated) | inactive: -24.2% |
| COc1ccc(NC(=O)Cn2c(=O)n(Cc3nc(-c4ccccc4)no3)c(=O)c3cc4c(cc32)OCO4)cc1Cl | inactive: 0.893% |
| Cc1cccn2c(=O)cc(COc3cccc(NC(=O)c4ccccc4F)c3)nc12 | inactive: 0.383% |
| COC(=O)c1ccccc1NC(=O)Cc1noc2ccc(C)cc12 | inactive: 1.2% |
| COc1ccc(OC)c(-c2noc(CSc3nnc(Cc4ccccc4)n3-c3cccc(C)c3)n2)c1 | inactive: -2.11% |
| Cc1noc2nc(C(=O)O)nc(N3CCCCC3)c12 | inactive: 10.6% |
| Cn1cc(S(=O)(=O)c2ccccc2)c(=O)c2cc(F)c(N3CCCCC3)cc21 | inactive: 6.19% |
| COc1cccc(N2CC(NC(=O)COc3ccc4ccccc4c3)CC2=O)c1 (configuration not stated) | inactive: 7.35% |
| CCc1nnc(SCC(=O)Nc2cc(Cl)c(OC)cc2OC)c2cc3oc(C)cc3n12 | inactive: 12.7% |
| CC1CCC(NC(=O)Cn2ncc3c4ccccc4n(Cc4ccc(Cl)cc4)c3c2=O)CC1 (configuration not stated) | inactive: -1.07% |
| CC(=O)c1ccc(NC(=O)CCn2nc(C)c(S(=O)(=O)N3CCC(C)CC3)c2C)cc1 | inactive: 6% |
| COc1ccc(C)c2sc(N(Cc3cccnc3)C(=O)CCc3ccccc3)nc12 | inactive: -5.12% |
| COC(=O)c1c(C)sc(-c2c(-c3cccc(OC)c3)[nH]c3c2c(=O)[nH]c(=O)n3C)c1O | inactive: 0.42% |
| CC(=O)Nc1ccc(S(=O)(=O)NC2(C(F)(F)F)NC(=O)N(c3ccc(Cl)cc3)C2=O)cc1 (configuration not stated) | inactive: 1.98% |
| COc1ccc(C(=O)N2CCc3cc(OC)c(OC)cc3C2COc2ccccc2OC)cc1 (configuration not stated) | inactive: -0.0742% |
| Cc1ccc(C(=O)COC(=O)c2cc(-c3ccc(Cl)cc3)nc3ccccc23)cc1 | inactive: 4.52% |
| COc1cccc(NC(=O)CSC2=Nc3ccccc3C3=NC(CCC(=O)NCc4ccco4)C(=O)N23)c1 (configuration not stated) | inactive: -2.19% |
| COc1ccccc1C(=O)Nc1nnc(S(=O)(=O)N2CCCCCC2)s1 | inactive: -6.7% |
| COc1ccc(-c2nc(CNS(=O)(=O)c3ccc(C)cc3)cs2)cc1 | inactive: 1.99% |
| CCOc1ccc(CCNc2nc3c(-c4ccc(C)cc4)nnn3c3ccccc23)cc1OCC | inactive: 25.5% |

| Structure (SMILES) | activity change, negative = cytotoxicity |
| --- | --- |
| Cc1ccc(-c2ccc(=O)n(CC(=O)Nc3ccc(F)c(Cl)c3)n2)cc1C | inactive: 4.68% |
| COc1ccc(-c2nc3ccccc3n2Cc2ccc(Cl)cc2)cc1 | inactive: 17.6% |
| O=C(OCc1cc(=O)n2c3c(sc2n1)CCCC3)c1cccc(NC(=O)c2ccccc2F)c1 | inactive: -25.4% |
| COc1cc(C)ccc1OCCSc1nnc(-c2ccc(C)cc2)o1 | inactive: 2.68% |
| Cc1ccc(C(=O)c2oc3ccccc3c2NC(=O)Cc2coc3c(C)c(C)ccc23)cc1 | inactive: -11.4% |
| O=C(NCc1ccccc1Cl)c1ccc(NC(=O)N2CCCCc3ccccc32)cc1 | inactive: -29.6% |
| Cc1ccc(S(=O)(=O)c2c(Nc3cccc(Cl)c3)sc(C(=O)c3ccc4c(c3)OCO4)c2N)cc1 | inactive: -8.64% |
| O=C(NCCS(=O)(=O)N1CCN(c2ccccc2)CC1)C1CC(=O)N(c2ccccc2)C1 (configuration not stated) | inactive: 0.784% |
| CC1CCCCN1CC(=O)N1CCCc2c1c(=O)oc1ccc(OCc3ccccc3)cc21 (configuration not stated) | inactive: 0.438% |
| COc1ccccc1C(=O)Nc1ccc(-c2nc3ccccc3s2)c(C)c1 | inactive: 5.99% |
| Cc1cc(Br)ccc1NC(=O)C1(S(=O)(=O)c2ccc(Cl)cc2)CC1 | inactive: -1.07% |
| Cc1cccc(NC(=O)CN(C)S(=O)(=O)c2ccc3c(c2)c(=O)n(C)c(=O)n3C)c1 | inactive: 2.06% |
| CC1CCc2c(sc3nnn(Cc4cccc(C(=O)OC(C)C)c4)c(=O)c23)C1 (configuration not stated) | inactive: 19.8% |
| CC(=O)N1CCc2c(sc3c2c(=O)n(-c2ccc(F)cc2)c(=O)n3Cc2ccc(C#N)cc2)C1 | inactive: 2.42% |
| CCCSc1oc(-c2ccco2)nc1S(=O)(=O)c1ccc(Br)cc1 | inactive: 12.1% |
| Cn1c(-n2cccc2)c(-c2c(-c3ccc(F)cc3)[nH]c3c2c(=O)n(C)c(=O)n3C)c(=O)n(C)c1=O | inactive: -1.81% |
| COCCCNC(=O)Cn1nc(N2CCN(c3ccccc3)CC2)ccc1=O | inactive: 2.05% |
| COCCn1ccc2c(OCC(=O)Nc3c(C)cc(C)cc3C)cccc2c1=O | inactive: 3.73% |
| Cc1ccc(S(=O)(=O)n2nc(-c3ccc(Cl)cc3)nc2NCc2ccccc2)cc1 | inactive: -13.1% |
| COc1ccc(-n2ccnc(NCc3cccs3)c2=O)cc1OC | inactive: 17.2% |
| CCOc1ccccc1CNC(=O)C1CCN(S(=O)(=O)c2c(C)noc2/C=C/c2ccccc2F)CC1 | inactive: 8.75% |

| Structure (SMILES) | activity change, negative = cytotoxicity |
| --- | --- |
| CCn1c(C(=O)NCc2ccccc2OC)cc2sccc21 | inactive: -3.22% |
| CC1=C(c2ccc(C(C)C)cc2)S(=O)(=O)N=C1N1CCC(C(=O)NCc2ccccc2)CC1 | inactive: -10.4% |
| COc1ccc(CC(=O)Nc2cc(-c3cn4cccnc4n3)ccc2C)cc1OC | inactive: -7.74% |
| COc1cccc2c1cc1c(=O)n(CC(=O)N3CCN(c4cccc(C(F)(F)F)c4)CC3)nc(C)n12 | inactive: 2.9% |
| CCOc1ccccc1NC(=O)C(CC(C)C)NC(=O)C1CCC(C)CC1 (configuration not stated) | inactive: -1.21% |
| CCCCN(CC)C(=O)CSc1nc2n[nH]c(C)c2c(=N)n1-c1cccc(C)c1 | inactive: -25.9% |
| O=C(COc1ccccc1Cl)Nc1nnc(S(=O)(=O)N2CCCC2)s1 | inactive: 1.3% |
| Cc1ccc(NC(=O)CCc2c(C)nn(-c3ccc(N4CCOCC4)nn3)c2C)c(C)c1 | inactive: 10.1% |
| COc1ccc(-n2nc3ccc(NC(=O)c4ccc(C#N)cc4F)cc3n2)cc1Cl | inactive: 1.27% |
| O=C(Nc1cccc(C(F)(F)F)c1)c1cc(-c2ccc(Cl)s2)nc2ccccc12 | inactive: 5.5% |
| O=C(O)Cn1c(-c2cccs2)cc2cc(Cl)ccc21 | inactive: 7.52% |
| O=C(Nc1cccs1)Nc1ccc(F)cc1F | inactive: -27.6% |
| COc1ccc(Cn2c(CO)cnc2SCC(=O)Nc2ccc3c(c2)OCCO3)cc1 | inactive: -3.93% |
| COc1cccc(COC(=O)c2ccc(-c3nnn(Cc4cccc(OC)c4)n3)cc2)c1 | inactive: 1.57% |
| CCOc1ccc(NC2SC(=O)N(Cc3ccccc3)C2=O)cc1 (configuration not stated) | inactive: -23.3% |
| COc1cccc2sc(NC(=O)CS(=O)(=O)c3ccc(C)cc3)nc12 | inactive: 0.586% |
| O=C(O)c1ccc(Cn2cnc3cccnc32)cc1 | inactive: -11.1% |
| CC1CCN(CC2CCN(C(=O)NCc3ccc(F)cc3)CC2)CC1 | inactive: 1.28% |
| COc1ccc(S(=O)(=O)c2cnc3cc(OC)c(OC)cc3c2N2CCCC(C)C2)cc1 (configuration not stated) | inactive: -26.2% |
| CC1CN(C(=O)CCC(=O)NCc2cccc(Cl)c2)c2ccccc2S1 (configuration not stated) | inactive: -1.72% |
